Measured values as given in the supplement of paper PMC3334620.
Over roughly 33,000 sequences, “E-score (-0.5 to 0.5)” has its median near -0.041; the highest 2% begin near 0.37. This is one part of the list.

target: T1, Ecm22 (UniProt Q05958); assay: PBM E-score (8-mer binding enrichment) (E-score (-0.5 to 0.5)); higher = stronger / more preferred TF binding; most listed sequences are background and not binding sites; details: protein concentration: 200 nM; construct: GST-full length
T1 sequence: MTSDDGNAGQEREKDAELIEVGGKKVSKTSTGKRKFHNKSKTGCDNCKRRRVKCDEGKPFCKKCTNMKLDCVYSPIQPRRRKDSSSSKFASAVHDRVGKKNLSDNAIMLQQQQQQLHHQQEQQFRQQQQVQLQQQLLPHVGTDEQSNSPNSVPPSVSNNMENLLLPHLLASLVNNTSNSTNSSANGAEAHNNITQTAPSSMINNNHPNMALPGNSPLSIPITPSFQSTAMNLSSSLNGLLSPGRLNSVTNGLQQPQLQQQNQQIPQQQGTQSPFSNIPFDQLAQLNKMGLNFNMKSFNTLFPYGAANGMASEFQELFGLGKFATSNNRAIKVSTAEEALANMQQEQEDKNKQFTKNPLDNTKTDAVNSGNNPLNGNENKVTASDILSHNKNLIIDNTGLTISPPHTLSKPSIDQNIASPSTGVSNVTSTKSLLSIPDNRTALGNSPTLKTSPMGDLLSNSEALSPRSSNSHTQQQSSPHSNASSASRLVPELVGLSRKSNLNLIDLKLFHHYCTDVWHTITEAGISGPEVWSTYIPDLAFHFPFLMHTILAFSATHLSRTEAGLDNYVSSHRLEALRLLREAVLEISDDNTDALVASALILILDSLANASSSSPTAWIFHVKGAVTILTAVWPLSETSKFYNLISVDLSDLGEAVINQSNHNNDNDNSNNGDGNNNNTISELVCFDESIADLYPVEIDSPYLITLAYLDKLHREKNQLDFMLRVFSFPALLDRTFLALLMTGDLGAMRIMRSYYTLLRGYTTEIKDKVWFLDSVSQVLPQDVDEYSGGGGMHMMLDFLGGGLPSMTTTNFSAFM
Experimental: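 Universal 'all 10-mer' protein binding microarrays (Agilent AMADID 015681) probed with GST-tagged S. cerevisiae TFs (full-length or DBD) made by in vitro transcription/translation (PURExpress), about 100-200 nM. Bound TF was detected with fluorescent anti-GST. Each ungapped 8-mer (which stands for itself and its reverse complement) is scored by the PBM enrichment score (E-score), a modified Wilcoxon-Mann-Whitney statistic from -0.5 to +0.5, computed with the Universal PBM Analysis Suite. Scale: above 0.35 generally sequence-specific binding.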

Row | Sequence | PBM E-score
1 | GCACGGAC | -0.0452
2 | ACGTATTG | 0.22
3 | TGCTTACA | -0.0902
4 | CATTACTA | 9e-05
5 | ATACGCCC | 0.116
6 | GAGGGGGC | -0.198
7 | CAAGCAGC | -0.0986
8 | ATCCACGA | 0.0369
9 | AGGTTCTA | -0.0822
10 | CTGACACA | -0.298
11 | CACTGTAA | -0.0272
12 | ACAAGAGT | -0.107
13 | ATAAGAAG | 0.0417
14 | ATGTTCAG | -0.297
15 | AATTGTCT | -0.0316
16 | TACCGATA | 0.245
17 | CAATTTTA | 0.121
18 | AGGGTTGG | -0.0747
19 | GCGGACAC | -0.0171
20 | GCCTATAA | -0.00832
21 | AACCCAGC | -0.207
22 | GCCTCAGA | -0.0532
23 | CGAACTCC | 0.184
24 | CAACCCCG | -0.214
25 | AAAGCTGG | -0.148

Row | Sequence | PBM E-score
26 | AGAATTTG | -0.0454
27 | GTGTCAAC | -0.212
28 | GTAGGAAA | -0.0658
29 | ATATATAC | 0.299
30 | AGCTCCCG | -0.104
31 | CATTCAAA | 0.0727
32 | GCTCCGTA | 0.351
33 | CACAGTCG | 0.063
34 | ATGCAACA | 0.0718
35 | AACCAGGG | -0.107
36 | TATATCCA | 0.0372
37 | AAACTACC | -0.0939
38 | AGGAGTGA | -0.176
39 | ATTAATTA | -0.0178
40 | ACGTGGCC | -0.0664
41 | CGTTTCGA | 0.202
42 | CAACCCGA | 0.187
43 | ACATGGCA | 0.0044
44 | ACATTGTG | -0.094
45 | ACGCGAAG | 0.212
46 | AAACACGG | -0.0557
47 | AGAGGGGG | -0.0644
48 | GACTCCCC | -0.197
49 | AACCCCAC | -0.0876
50 | GCGGCGTA | 0.155

Row | Sequence | PBM E-score
51 | CAAGCACG | 0.0668
52 | AACCCCAT | -0.202
53 | CGGCCCAG | -0.0878
54 | CCTCGACG | -0.141
55 | ACCACTAG | -0.253
56 | ACCGTCAT | -0.0527
57 | AACCTTGT | -0.173
58 | CAGGGGTA | -0.123
59 | CGCTAGCG | -0.053
60 | TCTTCCCA | -0.289
61 | AAGAATGA | -0.187
62 | GCGACAGC | 0.069
63 | AAGATGCT | 0.0411
64 | ACTCCAGC | 0.0201
65 | CCAATCCA | -0.217
66 | CCCGTCCG | -0.309
67 | CATAGAAG | -0.203
68 | CAGCGGTA | -0.013
69 | ACGCCGCA | 0.156
70 | TCCCTCCA | -0.312
71 | AGCCTAGA | -0.178
72 | CGTAGGGC | 0.0387
73 | AATTGACA | -0.099
74 | GAAATGGC | 0.0146
75 | AAAAGCGC | -0.0326

Row | Sequence | PBM E-score
76 | ACGGGACT | 0.0948
77 | GATAAATC | 0.0768
78 | CAGTTACC | -0.106
79 | CGAGAGCC | 0.0756
80 | ACCTAAGT | -0.0115
81 | ATTGTCAA | -0.0485
82 | AACTAACC | 0.205
83 | TCGAATCA | 0.0193
84 | CATTCCTA | -0.0714
85 | ACTCCTTA | -0.0566
86 | GCCCACAA | -0.164
87 | ACGGCACC | 0.11
88 | AAGTATAA | 0.0711
89 | CAATGGCG | -0.142
90 | TCGAGGCA | -0.0565
91 | AGCTCGAA | 0.133
92 | TCATTCCA | -0.0852
93 | GTGCCGCA | 0.0177
94 | CAGCCGGA | 0.0121
95 | AATACTGC | 0.0709
96 | ACCAGGGG | -0.206
97 | AAATCGAG | -0.0701
98 | CGGCCTTC | 0.0185
99 | CCATGTAC | 0.0282
100 | ACTAATAC | 0.134

Row | Sequence | PBM E-score
101 | GGTTTGTA | -0.079
102 | CGCTGCAC | 0.0403
103 | CTGTTAAA | -0.059
104 | GCCGTAAC | 0.139
105 | CAAGCCAC | -0.252
106 | AGACCCTA | -0.241
107 | ATTCAGCG | 0.203
108 | AAATACGC | 0.194
109 | AAGTCTTC | -0.116
110 | CGGCACAA | -0.027
111 | AAATCCGC | -0.166
112 | GACCCACA | 0.154
113 | ACAATTCG | 0.131
114 | AGATGTTC | -0.137
115 | CCGCCCGA | -0.104
116 | ATACGAAA | 0.463
117 | CAGGTATC | -0.0891
118 | ATTACAAA | 0.0328
119 | TCACCACA | -0.0241
120 | AACAATAC | 0.191
121 | CATTTTTC | 0.0145
122 | AATGCGCA | 0.0276
123 | AGTTACGG | 0.138
124 | CTTCGCAC | 0.185
125 | TGGAACAA | -0.0166

Row | Sequence | PBM E-score
126 | GTCTCATA | 0.00156
127 | ACAAGAGC | -0.117
128 | GTGCGTAA | 0.121
129 | CAGACAGC | -0.262
130 | AATTCCTG | -0.267
131 | ATGTATTG | 0.0849
132 | TTAACAAA | 0.183
133 | ACCAATAC | -0.0292
134 | AGAGAGCA | -0.163
135 | CGATACAA | 0.148
136 | CACAAATA | 0.0052
137 | GCGTCGCA | 0.23
138 | AGGGTGCG | -0.0528
139 | CCGCGCGG | 0.263
140 | CGGGTCCA | -0.181
141 | ACAATACA | 0.111
142 | GCCCGCTA | 0.0508
143 | CGAATTAC | 0.119
144 | TGATGACA | -0.0803
145 | TCCCGCGA | 0.129
146 | GAGATATC | 0.145
147 | ACTTATGC | 0.0832
148 | CAAAACTC | -0.0641
149 | GGCGAACC | 0.0118
150 | CGCCGTAG | 0.119

Row | Sequence | PBM E-score
151 | ATGCCACA | -0.24
152 | GGAGGTAC | 0.121
153 | CCCCATTC | 0.00876
154 | GAAACTGC | -0.0317
155 | TAATCATA | -0.0103
156 | CGAGTTCC | 0.167
157 | CCACCAGC | 0.0439
158 | GCCGGGAC | -0.149
159 | GACGCCGA | 0.0726
160 | AGGAGCGG | -0.232
161 | AAGGCCAC | -0.207
162 | GCATGACC | -0.227
163 | GACCGTCA | -0.179
164 | TATGAATA | 0.188
165 | AGTACCTA | -0.104
166 | CACTTTCA | -0.153
167 | GTAAACAC | 0.269
168 | AGTTAACA | 0.0269
169 | CCATACCG | -0.122
170 | ATAGGGCA | -0.357
171 | AACAGCAT | -0.125
172 | CCCTCGAA | -0.00252
